Data as given in ChEMBL document CHEMBL1201862, “PubChem BioAssay data set” (2004).

What follows are compounds tested on NCI-H322M (assay: growth of human tumour cells (NCI), 48 h).

`C/C(=N/N)c1ccc2[nH]c3c(C)cc([N+](=O)[O-])c(C)c3c2c1` was tested. Which GI50 did it give?
Its GI50 is inactive: 15 µM.

Which GI50 does the source give for `c1ccc(C2C3=C(CCCC3)Nc3nc4cc5ccccc5cc4n32)cc1` (stereo not given) here?
The GI50 was inactive: > 100 µM.

Which GI50 does the source give for `NC(CSC1(c2ccc(Cl)cc2)c2ccccc2-c2ccccc21)C(=O)O` (stereo not given) here?
Its GI50 is inactive: 41.1 µM.

Which GI50 does the source give for `O=CC1OC(=O)c2cc(O)c(O)c(O)c2-c2c(cc(O)c(O)c2O)C(=O)OC1C(O)C(O)CO` (stereo not given) here?
Its GI50 is inactive: 35 µM.

How did the GI50 turn out when `COC(=O)C1C/C(=C/N(C)C)C(=S)N1` (stereo not given) was run?
The GI50 was inactive: 27.2 µM.

With `CN1C(=S)CSc2ccccc21` as the compound, how does the GI50 read?
The GI50 was inactive: > 100 µM.

How did the GI50 turn out when `COC(=O)c1ccc2[nH]c3c(c2c1)CC(=O)Nc1ccccc1-3` was run?
The GI50 was inactive: > 100 µM.

Which GI50 does the source give for `CCOC(=O)C12CCSC1C1(C#N)C(C#N)=CC2(N=P(c2ccccc2)(c2ccccc2)c2ccccc2)n2c(=O)n(-c3ccccc3)c(=O)n21` (stereo not given) here?
The GI50 was inactive: > 100 µM.

With `Cc1nc(O)nc(O)c1/C=C/C(=O)O` as the compound, how does the GI50 read?
The GI50 was inactive: > 1000 µM.

`C[C@]12CC(c3ccccc3O1)C(C(=O)Nc1nc(C34CC5CC(CC(C5)C3)C4)cs1)C(=O)N2` (stereo not given in full) was tested. Which GI50 did it give?
Its GI50 is inactive: > 100 µM.

Which GI50 does the source give for `CC12C(=CC(=O)CC1SCCS(=O)(=O)O)C(C#N)=C(N)N2c1ccc(Cl)c(Cl)c1` (stereo not given) here?
The GI50 was inactive: > 100 µM.

For `CCN(CC)CCCNc1ccc2ncn3c4ccc(O)cc4c(=O)c1c23`, which GI50 is on record?
Its GI50 is inactive: 1.36 µM.

How did the GI50 turn out when `C[C@]12CC[C@H]3[C@@H](CC=C4C[C@@H](O)CC[C@@]43C)[C@@H]1C/C(=C/c1ccccc1)[C@@H]2O` was run?
The GI50 was inactive: 22.9 µM.

How did the GI50 turn out when `O=C1c2ccccc2C(=O)C2NC(CCCCCSSCCCCCC3=NC4C(=O)c5ccccc5C(=O)C4N3)=NC12` (stereo not given) was run?
Its GI50 is inactive: > 100 µM.

With `CCN(CC)c1ccc2cc(C(=O)Nc3ccccc3OC)c(=N)oc2c1` as the compound, how does the GI50 read?
The GI50 was inactive: 19.6 µM.

Which GI50 does the source give for `O=c1cc2n(c(=O)[nH]1)C1OC(C(O)C1O)[C@@H]2CCO` (stereo not given in full) here?
Its GI50 is inactive: > 100 µM.

How did the GI50 turn out when `CC1=C(C)C(=O)C(C2=CC(=O)c3ccccc3C2=O)=C(C2=CC(=O)c3ccccc3C2=O)C1=O` was run?
The GI50 was inactive: 19.1 µM.

How did the GI50 turn out when `COc1ccccc1C(=O)N(C)c1ccc(Cl)c(C(=O)OC(C)C)c1` was run?
Its GI50 is inactive: > 100 µM.

How did the GI50 turn out when `CNc1ccc([S+]([O-])Nc2ccc(OC)cc2)cc1` (stereo not given) was run?
Its GI50 is inactive: > 100 µM.

How did the GI50 turn out when `O=C(Nc1ccc2[nH]c(C(=O)N3CC(CCl)c4c3cc([N+](=O)[O-])c3ccccc43)cc2c1)Nc1ccc2[nH]c(C(=O)N3CC(CCl)c4c3cc([N+](=O)[O-])c3ccccc43)cc2c1` (stereo not given) was run?
Its GI50 is inactive: > 100 µM.

How did the GI50 turn out when `C=C1CC(OC(C)=O)/C=C(/C)CCC(C(C)(C)O)CC1O` (stereo not given) was run?
Its GI50 is inactive: > 100 µM.

How did the GI50 turn out when `Nc1ccc(Oc2ccc(C34CC5CC(C3)CC(c3ccc(Oc6ccc(N)cc6)cc3)(C5)C4)cc2)cc1` was run?
Its GI50 is inactive: 3.24 µM.

How did the GI50 turn out when `COc1ccc(NCC#N)cc1` was run?
The GI50 was inactive: > 100 µM.

`COC(=O)Nc1nc2cc(NC(=O)c3cccs3)ccc2[nH]1` was tested. Which GI50 did it give?
The GI50 was inactive: 74.6 µM.

`CCOC(=O)/C(=C/c1cc(OC)ccc1OC)CC(=O)O` was tested. Which GI50 did it give?
The GI50 was inactive: > 100 µM.

Which GI50 does the source give for `CO/C=C(\Br)c1ccc2c(c1)OCO2` here?
Its GI50 is inactive: > 100 µM.

With `O=C(CC(C(=O)c1ccsc1)c1cccs1)c1ccccc1` (stereo not given) as the compound, how does the GI50 read?
Its GI50 is inactive: > 100 µM.

How did the GI50 turn out when `OC1[C@H]([C@H]2CCCC[C@@H]2O)CCC[C@@H]1[C@@H]1CCCC[C@H]1O` (stereo not given in full) was run?
The GI50 was inactive: > 100 µM.

With `CC(=O)C1C(=O)N(C(C)C)C[C@@H]2CCC(=O)C[C@H]12` (stereo not given in full) as the compound, how does the GI50 read?
Its GI50 is inactive: > 100 µM.

How did the GI50 turn out when `NC(CCP(=O)(O)CCC1C=CC=CC1)C(=O)O` (stereo not given) was run?
The GI50 was inactive: > 100 µM.

Which GI50 does the source give for `CCC1OC2C(CC=C(C)C)=C3OC(C)(O)C(C)(CC)C(=O)C3=C3OC(=O)C=C1C32` (stereo not given) here?
The GI50 was inactive: 29.7 µM.

`COc1ccc(C2SC(C)C(=O)N2c2nc(-c3nc(-c4ccc(Cl)cc4)cs3)cs2)cc1` (stereo not given) was tested. Which GI50 did it give?
Its GI50 is inactive: > 100 µM.

With `O=C(Nc1ccc(Cl)cc1)[C-](C(=O)c1ccc(Br)cc1)[n+]1cccc(-c2ccc(Cl)cc2)n1` as the compound, how does the GI50 read?
The GI50 was inactive: 3.28 µM.

Which GI50 does the source give for `O=C1NC(=S)NC(=O)C1=C/C=C/c1ccc([N+](=O)[O-])cc1` here?
The GI50 was inactive: 22 µM.

With `COc1cc2c(cc1O)CC[n+]1cc3c(OC)c(OC)ccc3cc1-2` as the compound, how does the GI50 read?
The GI50 was inactive: > 100 µM.

With `COC(=O)N/N=C(\C)CC(=O)Nc1cccc([N+](=O)[O-])c1` as the compound, how does the GI50 read?
Its GI50 is inactive: > 100 µM.

How did the GI50 turn out when `N=C(N)SCc1cc(Cl)cc(Cl)c1O` was run?
Its GI50 is inactive: 18.7 µM.

How did the GI50 turn out when `NC(=S)N/N=C(\Cc1nc2ccc(Cl)cc2nc1O)C(=O)Nc1ccc(Cl)cc1` was run?
Its GI50 is inactive: > 100 µM.

`O=C(O)C(=Cc1ccnc2ccccc12)C(=O)O` was tested. Which GI50 did it give?
Its GI50 is inactive: > 100 µM.

For `O=Cc1c(O)c(C(=O)Nc2ccc3[nH]c(=O)[nH]c3c2)cc2ccccc12`, which GI50 is on record?
Its GI50 is inactive: > 100 µM.

For `CC(C)SC1SCC2C(=O)N(C)C3(CC3C)C(=O)OCC(NC(=O)c3nc4ccccc4cc3O)C(=O)NC(C)C(=O)N(C)C1C(=O)N(C)C1(CC1C)C(=O)OCC(NC(=O)c1nc3ccccc3cc1O)C(=O)NC(C)C(=O)N2C` (stereo not given), which GI50 is on record?
Its GI50 is active: < 0.0001 µM.

`C/C=C/[C@H]1O[C@@](OC)([C@@H](C)[C@H](O)[C@H](C)[C@H]2OC(=O)/C(OC)=C/C(C)=C/[C@@H](C)[C@@H](O)[C@@H](C)[C@@H](O)[C@H](C)C/C(C)=C/C=C/[C@@H]2OC)CC(OC2CC(O)C(OC(N)=O)C(C)O2)[C@@H]1C` (stereo not given in full) was tested. Which GI50 did it give?
The GI50 was inactive: 6.24 µM.

`Cc1noc2cccc(OCc3ccccc3)c12` was tested. Which GI50 did it give?
Its GI50 is inactive: 60.4 µM.

`CC(C)(C)OC(=O)NCCc1ccc(N)cc1` was tested. Which GI50 did it give?
The GI50 was inactive: > 100 µM.

Which GI50 does the source give for `COC(=O)c1nc(N)nc(C(=O)OC)c1C(=O)c1ccccc1` here?
The GI50 was inactive: > 100 µM.

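Each compound was tested at five concentrations against cells in 96-well plates for 48 hours. GI50 is the concentration that inhibits growth by half.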 Calls of active or inactive are those of the source. Rule as the data show it: active = GI50 up to about 1.1 µM and inactive = higher.
